# Experimental data as given in article PMC12136788.
# Residue numbers refer to the chain shown, from its start. The list shows a part of the results.
# B1: chr18:9283235:9283336:+|3pUTR|ENSG00000101745|msi1|FALSE|bound_elsewhere (ssRNA)
# RNA: GGGAGUUCUACAGUCCGACGAUCCUGAUGGUUCAACCAGAGGUCUGGGAAAUAGCACUGUUGGCCCAAACAGAACAGGCUUUUAGAAGAUAAAAGCGACAAGAAGGAAUCUGGUGAAUUUUAGUCAUCCCAGCUUUUUAGUCUCAACAGAGGAUUGAGCAUCA
# B2: ENSG00000198589:be:win_8601|3pUTR|ENSG00000198589|bound_else_gene|NA|bound_elsewhere_windowed (ssRNA)
# RNA: GGGAGUUCUACAGUCCGACGAUCAAGUACCUGGAGCAUCAUUCUCUUCUACCACAUCUGAAUGUAACUUAAAUUUGCUCAAAGAAGCAAAAUAUUUUUUAAAGUUAUUAAUAAUUGCUAUUUUUGUAGUCUUUGCUUGACUUUCAACAGAGGAUUGAGCAUCA
# B3: ENSG00000124766:be:win_2301|3pUTR|ENSG00000124766|bound_else_gene|NA|bound_elsewhere_windowed (ssRNA)
# RNA: GGGAGUUCUACAGUCCGACGAUCGCUGGGCCUCCGCCUUCUUUUCUACGUGAAAUCAGUGAGGUGAGACUUCCCAGACCCCGGAGGCGUGGAGGAGAGGAGACUGUUUGAUGUGGUACAGGGGCAGUCAGUGGAGGGCGAGUGCAACAGAGGAUUGAGCAUCA
# B4: chr3:165187899:165190830:-|CDS|ENSG00000121871|control|control|control (ssRNA)
# RNA: GGGAGUUCUACAGUCCGACGAUCAAAUGGUGGGGUGGUGCUGUUUCCUCCUGGGGGAGGCUGUGGUAGUGGCAGUAUGCUACUAGAUCGAGAGAGGCCACAGCCUGCCCCCUGCACAGUGGGAUUUGUGGACUGUCUCUAUGGCAACAGAGGAUUGAGCAUCA
# B5: ENSG00000198589:be:win_9001|3pUTR|ENSG00000198589|bound_else_gene|NA|bound_elsewhere_windowed (ssRNA)
# RNA: GGGAGUUCUACAGUCCGACGAUCUUCUUCAGCACUAAUAUUUCUGGGAUUUAAAUAGUAAUGUUUAAAUUAUGGUAAAUGUAAUUUAAAACAUCUCAAUUAAGUCUGUCUAUCAAUAUUGUUCUUCAAGCAUGUUUUAGACCUCAACAGAGGAUUGAGCAUCA
# B6: chr2:121605696:121605828:-|CDS|ENSG00000074054|unk|total|mutant (ssRNA)
# RNA: GGGAGUUCUACAGUCCGACGAUCGACCGACUAUUUCUCAGACAAACAGAAGUCUGCUGACCUUGAGCAUGACCAGACCAUGUCCGAUAAACUUGUGGAUGGACUUGCUACCUCUUGGGUGAACUCCCGCAAUUACAAGGUAAGCAACAGAGGAUUGAGCAUCA
# B7: chr2:148946928:148947042:+|CDS|ENSG00000168280|unk|FALSE|bound_elsewhere (ssRNA)
# RNA: GGGAGUUCUACAGUCCGACGAUCGAAUGAACACAGCUCUAGAAGUCACAGUAUCUUCCUGAUAAAUAUUAAACAAGAGAAUGUAGAGACUGAAAAAAAACUCAGUGGGAAACUUUAUUUGGUUGAUUUGGCUGGGAGCGAAAACAACAGAGGAUUGAGCAUCA
# B8: chrX:71101288:71101389:+|CDS|ENSG00000184481|unk|FALSE|unique (ssRNA)
# RNA: GGGAGUUCUACAGUCCGACGAUCGGAGGCCCUGCUCACCUCUGAUACGCCACCACCCCCUGCUGACGUCCUCAUGACCCAGGUAGAUCCCAUUCUGUCCCAGGCUCCGACUCUUCUGUUGCUGGGGGGGCUUCCUUCCUCCAGCAACAGAGGAUUGAGCAUCA
# B9: ENSG00000136451:be:win_1551|CDS_3pUTR|ENSG00000136451|bound_else_gene|NA|bound_elsewhere_windowed (ssRNA)
# RNA: GGGAGUUCUACAGUCCGACGAUCAUCACCGCCUUGGUAAACAGUAUUAUAAAAUCAAAAUAUGGGUAAAAGUAAAUAUUUACCAGCAACUUAACUUUUAGUUGAUUAAAGCAAAAAGUAAACCAUGAAAUUGGGAGAUUUUAUCAACAGAGGAUUGAGCAUCA
# B10: chr4:138169334:138169435:-|3pUTR|ENSG00000151012|msi1|total|mutant (ssRNA)
# RNA: GGGAGUUCUACAGUCCGACGAUCCCAUUUCACGCAGAAAAAAAGUCAGCCAGUAAUUAAGAAAAAAAGUGAUGGAGAUUAAGCCGUAUUUUGGCUUAUUUUCCGGACUCAUCAUGAGAAGACACAGUUCCUUUAAUCAGGAAACAACAGAGGAUUGAGCAUCA
# B11: chr4:145760401:145760502:-|3pUTR|ENSG00000151612|unk|FALSE|unique (ssRNA)
# RNA: GGGAGUUCUACAGUCCGACGAUCUCCGUACUUUUCUCUGAAAGGAAUCUUGUCUUGUUAAACCCUAAAGAGAGUGUCCUUAAUAGCAAUCAGCACUUGUAAGCUUAUAUACUGGUGCAUUUGGUUUUCUGUUGGGUGAAUGCGCAACAGAGGAUUGAGCAUCA
# B12: chr22:40826605:40826706:-|CDS|ENSG00000100380|unk|FALSE|bound_elsewhere (ssRNA)
# RNA: GGGAGUUCUACAGUCCGACGAUCCACCAAAUUACAGGUCUAAAUAAGAGAUGGAAUUUAGGAUAAUAAACUUACUGACCCAGUAGGACACUUUUUAAAUACUAAUGAACCCUUUCUUUUCAGGAUCCAGAAGUUAUGGUGGCUCAACAGAGGAUUGAGCAUCA
# B13: ENSG00000198589:be:win_7851|CDS|ENSG00000198589|bound_else_gene|NA|bound_elsewhere_windowed (ssRNA)
# RNA: GGGAGUUCUACAGUCCGACGAUCAAGAUUGAUCCAAGUGGUGUUUGGCCAUUGGGAUGUCGUCACUUGCCUUGCUCGUUCUGAGUCAUAUAUUGGGGGAAAUUGCUACAUUCUCUCAGGGUCACGUGAUGCAACUCUUUUGCUCAACAGAGGAUUGAGCAUCA
# B14: ENSG00000111670:stop:overlap|stop_codon|ENSG00000111670|stop_codon|NA|stop_codon (ssRNA)
# RNA: GGGAGUUCUACAGUCCGACGAUCGGAAGAUAUUUCCCAGAAGGAGGAUACACAAAGAAGCUAGUCCCAAUCGAAUCAGAGUAUAGAAGAUCUUCAUUUGAAAACCAUCUACCUCAGCAUUUACUGAGCAUUUUAAAACUCAGCCAACAGAGGAUUGAGCAUCA
# B15: chr1:228407934:228408200:-|three_prime_utr|ENSG00000162931|control|control|control (ssRNA)
# RNA: GGGAGUUCUACAGUCCGACGAUCGGCCUUCUGCUUACUGCAGGCCACCUGCCAGGGUUCUCUGGCAUCACGCUGGCAGCCAUUAGACACACAGGGGGGUUUCUCAAAUUCUAAAUAUAAUUGUGAUUAGAACUGUCAAACAUUCAACAGAGGAUUGAGCAUCA
# B16: chr5:24509697:24509799:-|CDS|ENSG00000040731|unk|FALSE|unique (ssRNA)
# RNA: GGGAGUUCUACAGUCCGACGAUCACUCGACUAUGAGAGCCGAAGACUUUAUACUCUGAAAGUCGAAGCAGAAAACACCCAUGUAGAUCCCCGUUUUUAUUACCUAGGACCAUUUAAAGAUACUACCAUAGUGAAAAUCUCUAUCAACAGAGGAUUGAGCAUCA
# B17: chr1:160214333:160214525:+|3pUTR|ENSG00000162734|msi1|FALSE|unique (ssRNA)
# RNA: GGGAGUUCUACAGUCCGACGAUCCUACAGUGUUUUCCUUUGCACCGAUCCCCACCCCAAUUCAAUCCCGGAAGGGACUUACUUAGGAAACCCUUCUUUACUAGAUAUCCUGGCCCCCUGGGCUUGUGAACACCUCCUAGCCACCAACAGAGGAUUGAGCAUCA
# B18: ENSG00000070961:be:win_2951|CDS|ENSG00000070961|bound_else_gene|NA|bound_elsewhere_windowed (ssRNA)
# RNA: GGGAGUUCUACAGUCCGACGAUCUUUUCAACGAAAUAAAUGCCCGGAAAAUUCAUGGUGAAAGAAAUGUAUUCGAAGGAAUCUUUAACAAUGCCAUCUUCUGCACAAUUGUUUUAGGCACUUUUGUGGUACAGAUAAUAAUUGCAACAGAGGAUUGAGCAUCA
# B19: chr22:40826605:40826706:-|CDS|ENSG00000100380|unk|total|mutant (ssRNA)
# RNA: B12 RNA with U58C, A59C, U83C, A84C
# B20: chr10:37949572:37952126:-|three_prime_utr|ENSG00000175395|control|control|control (ssRNA)
# RNA: GGGAGUUCUACAGUCCGACGAUCUAAUCCUUCAAAACAAUCAGAUAAUUCACACAAGAGGUACACCUUAUGAAUCGCAUCAAUAGAGGGAAAUUUUCAGCUACAAUCUUUGCUCUCUCUGUGUAUCAGCAAAUACAUAGAGAGCAACAGAGGAUUGAGCAUCA
# B21: chr4:100187679:100188167:-|CDS|ENSG00000145358|control|control|control (ssRNA)
# RNA: GGGAGUUCUACAGUCCGACGAUCACACUUGUGUUUAAGCAGGAGAACUGCUCAUGGACUAGCUUCAGGGACUUUUUCUUUAGUAGAGGUCGCUUCUCCUCUGGUUUCAGGAGAACUCUGAUCCUCAGCUCAGGAUUUCGACUUCAACAGAGGAUUGAGCAUCA
# B22: chr15:59031169:59031386:+|CDS|ENSG00000157450|unk|FALSE|unique (ssRNA)
# RNA: GGGAGUUCUACAGUCCGACGAUCACACCAAGUGAUGAAGAUAAUGAUUCCUCUUUUAGUGAUUGUCUUUCUUCUCCUUCAUCUAGUCUGCAUUUUGGAGAUUCUGAUACUGUGACUUCAGAUGAGGAUAAAGAAGUCUCUGUACAACAGAGGAUUGAGCAUCA
# Molecular target: MSI1 full-length (mouse, UniProt Q61474 1-362)
# Assay: nsRBNS (natural sequence RNA bind-n-seq); RBNS binding buffer (assumed for nsRBNS): 25 mM Tris pH 7.5, 150 mM KCl, 3 mM MgCl2, 0.01% Triton X-100, 500 ug/ml BSA, 20 U/ml SUPERase-In, 4 C; UNK is unkempt and MSI1 is Musashi-1; names of the RNAs are library labels; protein concentration not given here; high values mean tight binding
# UniProt Q61474, sequence (Q61474 whole entry): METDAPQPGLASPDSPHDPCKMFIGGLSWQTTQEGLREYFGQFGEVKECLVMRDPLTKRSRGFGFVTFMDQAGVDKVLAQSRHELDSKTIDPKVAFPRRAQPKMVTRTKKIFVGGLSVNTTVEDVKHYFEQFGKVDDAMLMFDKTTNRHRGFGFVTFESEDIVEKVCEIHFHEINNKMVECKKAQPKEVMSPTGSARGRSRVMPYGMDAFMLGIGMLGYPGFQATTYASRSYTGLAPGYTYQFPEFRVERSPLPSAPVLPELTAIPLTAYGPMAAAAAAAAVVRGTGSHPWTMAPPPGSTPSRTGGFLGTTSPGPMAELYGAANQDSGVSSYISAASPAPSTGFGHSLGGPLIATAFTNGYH
row,Binder,binding signal
1,B1,0.852 enrichment R
2,B2,1.11 enrichment R
3,B3,0.602 enrichment R
4,B4,0.675 enrichment R
5,B5,0.954 enrichment R
6,B6,0.532 enrichment R
7,B7,0.88 enrichment R
8,B8,0.429 enrichment R
9,B9,0.878 enrichment R
10,B10,0.883 enrichment R
11,B11,0.399 enrichment R
12,B12,0.448 enrichment R
13,B13,0.269 enrichment R
14,B14,1.52 enrichment R
15,B15,0.679 enrichment R
16,B16,3.85 enrichment R
17,B17,2.23 enrichment R
18,B18,0.212 enrichment R
19,B19,0.5 enrichment R
20,B20,0.445 enrichment R
21,B21,0.398 enrichment R
22,B22,0.352 enrichment R
